Assays:
[1] = molecular target: T1, P-gp (Homo sapiens, UniProt P08183); test: Vanadate-sensitive P-gp ATPase activity assay (P-gp-Glo)
[2] = tested on: P-gp; test: EC50 for reversing drug resistance, summarised over the three P-gp-overexpressing cell lines; conditions: read-out: EC50 of P-gp-modulating activity; as stated in the abstract
[3] = molecular target: T1, P-gp; test: Intracellular DOX accumulation in LCC6MDR cells; type: cell-based; design: expressed in transfected cells; host or cells: MDA435/LCC6MDR (human breast cancer line, gift of Dr. Robert Clarke); conditions: 1 µM; P-gp-overexpressing cells, cell line not specified
Protocol: Figure 2 Effect of methylated catechin derivatives on intracellular DOX accumulation and DOX efflux in the P-gp-overexpressing cancer cells. […] Then, the cells were washed, and the intracellular DOX level was measured using flow cytometer. (A) LCC6MDR, (B) P388ADR, and (C) K562/P-gp. […] (D) In the efflux study, P388ADR cells were firstly incubated with 20 µM DOX for 45 min. […] At 60, 120, and 180 min, the cells were harvested, and the intracellular DOX level was measured. At 180 min, ** represents p < 0.01, and *** represents p < 0.001, both being relative to P388ADR incubated with DMSO only. […] N = 3 independent experiments. DMSO was used as a solvent control, and the highest amount used was 0.5%.

[4] = tested on: LCC6 cells; test: Drug resistance level: IC50 of anticancer drugs in LCC6; type: cell-based; conditions: Homo sapiens, LCC-6, 72 h; 3 days incubation
Protocol: (§1) In the Western blot membrane, the total P-gp and β-actin expression in each lane was quantified with ImageJ software. The relative P-gp expression was an intensity ratio of P-gp band relative to the β-actin band. The relative P-gp expression of the resistant cell line relative to its respective wild type was presented as a bar chart. The plasma membrane P-gp levels of LCC6MDR and K562/P-gp relative to their wild types were determined through flow cytometry using antihuman P-gp-PE antibodies. (B) LCC6MDR and LCC6. (C) K562/P-gp and K562. (D) the drug resistance levels of three P-gp-overexpressing cell lines and their wild types were studied. The 3 pairs of cell lines were incubated with anticancer drugs paclitaxel (PTX), doxorubicin (DOX), and vincristine (VCR) for 3 days, and the % of cell survival was then determined. Their IC50 (nM) values were calculated using Prism 5.0. RF (relative fold) was a ratio of IC50 of anticancer drugs in a P-gp-overexpressing cell line relative to its respective wild type. N = 3 independent experiments. […] All cell lines were counterstained with DAPI. (E) LCC6 and LCC6MDR, (F) P388 and P338ADR, and (G) K562 and K562/P-gp. Bar = 8 µm. / = not determined.

[5] = tested on: LCC6MDR cells; test: Drug resistance level: IC50 of anticancer drugs in LCC6MDR; type: cell-based, human
Protocol: as §1

[6] = tested on: P388ADR cells; test: Drug resistance level: IC50 of anticancer drugs in P388ADR; type: cell-based, mouse
Protocol: as §1

[7] = molecular target: T1, P-gp; test: Intracellular EC31 or PTX accumulation in LCC6 versus LCC6MDR cells; type: cell-based; design: expressed in transfected cells; host or cells: MDA435/LCC6MDR (human breast cancer line, gift of Dr. Robert Clarke); conditions: 150 min
Source text: N = 3 independent experiments.

T1 sequence (P08183 whole entry): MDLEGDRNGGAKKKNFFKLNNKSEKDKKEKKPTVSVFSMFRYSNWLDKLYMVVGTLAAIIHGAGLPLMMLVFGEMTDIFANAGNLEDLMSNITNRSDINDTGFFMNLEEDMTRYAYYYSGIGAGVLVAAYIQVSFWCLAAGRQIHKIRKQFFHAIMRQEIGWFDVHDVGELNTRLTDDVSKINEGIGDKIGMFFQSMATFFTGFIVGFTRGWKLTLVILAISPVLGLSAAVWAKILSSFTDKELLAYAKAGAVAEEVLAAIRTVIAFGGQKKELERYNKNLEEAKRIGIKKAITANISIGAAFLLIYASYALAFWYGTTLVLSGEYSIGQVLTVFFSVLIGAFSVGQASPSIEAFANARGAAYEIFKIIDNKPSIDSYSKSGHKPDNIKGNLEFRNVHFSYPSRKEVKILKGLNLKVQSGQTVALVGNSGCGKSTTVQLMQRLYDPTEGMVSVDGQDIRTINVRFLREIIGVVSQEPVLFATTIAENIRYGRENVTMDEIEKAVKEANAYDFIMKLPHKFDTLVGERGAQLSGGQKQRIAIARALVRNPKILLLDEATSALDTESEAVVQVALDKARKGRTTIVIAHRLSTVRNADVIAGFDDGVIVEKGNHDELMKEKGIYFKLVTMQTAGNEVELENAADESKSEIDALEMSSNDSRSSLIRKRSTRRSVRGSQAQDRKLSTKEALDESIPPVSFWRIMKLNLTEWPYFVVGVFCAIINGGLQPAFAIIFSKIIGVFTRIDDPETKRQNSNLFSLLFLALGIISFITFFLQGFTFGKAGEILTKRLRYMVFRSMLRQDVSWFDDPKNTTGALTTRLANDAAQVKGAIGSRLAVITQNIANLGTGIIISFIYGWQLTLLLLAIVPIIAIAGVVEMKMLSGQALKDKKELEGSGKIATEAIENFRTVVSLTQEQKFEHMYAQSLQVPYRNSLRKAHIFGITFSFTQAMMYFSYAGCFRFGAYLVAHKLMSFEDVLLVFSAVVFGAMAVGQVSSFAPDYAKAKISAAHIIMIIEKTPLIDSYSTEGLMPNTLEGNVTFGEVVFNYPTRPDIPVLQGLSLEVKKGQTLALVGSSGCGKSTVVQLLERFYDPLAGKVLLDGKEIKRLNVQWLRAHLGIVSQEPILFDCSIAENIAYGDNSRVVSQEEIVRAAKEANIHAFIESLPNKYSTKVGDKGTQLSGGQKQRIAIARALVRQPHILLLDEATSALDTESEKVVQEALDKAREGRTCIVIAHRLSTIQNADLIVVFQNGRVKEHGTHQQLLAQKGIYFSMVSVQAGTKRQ

O=C(O[C@@H]1Cc2c(O)cc(O)cc2O[C@@H]1c1cc(O)c(O)c(O)c1)c1cc(O)c(O)c(O)c1 [EGCG, epigallocatechin gallate, reference compound]
P-gp ATPase activity, fold change relative to basal ([1]; 10 µM): 1.4 fold
P-gp ATPase activity, fold change relative to basal ([1]; 70 µM): 0.7 fold
EC50 [2]: > 10000 nM
effect on DOX accumulation [3]: no effect

CC(=O)O[C@H]1C(=O)[C@@]2(C)[C@H]([C@H](OC(=O)c3ccccc3)[C@]3(O)C[C@H](OC(=O)[C@H](O)[C@@H](NC(=O)c4ccccc4)c4ccccc4)C(C)=C1C3(C)C)[C@]1(OC(C)=O)CO[C@@H]1C[C@@H]2O [PTX, paclitaxel]
IC50 [4]: 1.9 ± 0.2 nM
IC50 ([5]; Homo sapiens, LCC6MDR, 72 h, 3 days incubation): 152 ± 9.7 nM
RF (relative fold) ([5]; IC50 in LCC6MDR relative to LCC6): 80.3
RF (relative fold) ([6]; IC50 in P388ADR relative to P388): 28.3
IC50 ([6]; Mus musculus, P388/ADR, 72 h, 3 days incubation): 1790 ± 139 nM
Intracellular EC31 or PTX concentration, LCC6 relative to LCC6MDR ([7]; 1 μM): 2.3 ×
Intracellular EC31 or PTX concentration, LCC6 relative to LCC6MDR ([7]; 5 μM): 3.4 ×

From publication PMC10002220, “In Vivo Reversal of P-Glycoprotein-Mediated Drug Resistance in a Breast Cancer Xenograft and in Leukemia Models Using a Novel, Potent, and Nontoxic Epicatechin EC31” (International Journal of Molecular Sciences, 2023)
